Reference: patent US10299477B2 (priority 2015, dated 2019)
Read-outs that look alike come from different tables or passages of the source.

What was measured:
Magnaporthe grisea = type: in vivo; details: for Test A (control value class, blast on rice): in vivo
Phytophthora infestans = type: in vivo; details: for Test F (control value class): 250 ppm spray; for Test F (control value class, late blight on tomato): 250 ppm, sprayed 2.5 ml/pot before inoculation; for Test F control value: 250 ppm sprayed before inoculation
[1] = rice blast, Magnaporthe grisea, 250 ppm spray
[2] = late blight on tomato, Phytophthora infestans, 5-10 days after inoculation
[3] = evaluated 5-10 days after inoculation
[4] = Blast on rice, control value=100{1-(n/3)}
[5] = Late blight on tomato, 2.5 ml/pot, evaluated 5-10 days after inoculation
[6] = Late blight on tomato, 5-10 days after inoculation

## CCn1c(-c2c(F)cc(OC)cc2F)c(-c2ccccc2F)cc(Cl)c1=O [Compound 531]
Magnaporthe grisea; [1]
  Test A (control value class): H (H shows more than 50% of control values)
Phytophthora infestans; [2]
  Test F (control value class): L (L shows 50% or less of control values)

## CCn1c(-c2c(F)cc(F)cc2F)c(-c2cc(F)cc(F)c2Cl)cc(Cl)c1=O [Compound 585]
Magnaporthe grisea
  Test A (control value class, blast on rice): H (H shows more than 50% of control values)
Phytophthora infestans; [3]
  Test F (control value class, late blight on tomato): L (L shows 50% or less of control values)

## CCn1c(-c2c(F)cc(F)cc2F)c(-c2ccccc2Cl)cc(I)c1=O [Compound 821]
Magnaporthe grisea; [4]
  Test A (control value class): H (H shows more than 50% of control values)
Phytophthora infestans; [5]
  Test F (control value class): L (L shows 50% or less of control values)

## Cn1c(-c2c(F)cccc2F)c(-c2c(F)c(F)c(F)c(F)c2F)cc(Cl)c1=O [Compound 374]
Magnaporthe grisea; [1]
  Test A (control value class): H (H shows more than 50% of control values)
Phytophthora infestans; [2]
  Test F (control value class): L (L shows 50% or less of control values)

## CCn1c(-c2c(F)cc(F)cc2F)c(-c2cc(F)cc(F)c2Br)ccc1=O [Compound 812]
Magnaporthe grisea; [4]
  Test A (control value class): H (H shows more than 50% of control values)
Phytophthora infestans; [5]
  Test F (control value class): L (L shows 50% or less of control values)

## CCn1c(-c2c(F)cc(F)cc2F)c(-c2ccccc2F)ccc1=O [Compound 527]
Magnaporthe grisea; [1]
  Test A (control value class): H (H shows more than 50% of control values)
Phytophthora infestans; [2]
  Test F (control value class): L (L shows 50% or less of control values)

## CCn1c(-c2c(F)cc(OC)cc2F)c(-c2ccccc2Cl)ccc1=O [Compound 430]
Magnaporthe grisea; [1]
  Test A (control value class): H (H shows more than 50% of control values)
Phytophthora infestans; [2]
  Test F (control value class): L (L shows 50% or less of control values)

## CCN1C(=O)CCC(c2ccccc2F)=C1c1c(F)cc(F)cc1F [Compound 514]
Magnaporthe grisea; [1]
  Test A (control value class): H (H shows more than 50% of control values)
Phytophthora infestans; [2]
  Test F (control value class): L (L shows 50% or less of control values)

## CCn1c(-c2c(F)cccc2F)c(-c2cc(OC)ccc2Cl)cc(S(C)(=O)=O)c1=O [Compound 387]
Magnaporthe grisea; [1]
  Test A (control value class): H (H shows more than 50% of control values)
Phytophthora infestans; [2]
  Test F (control value class): L (L shows 50% or less of control values)

## CCn1c(-c2c(F)cc(OC)cc2F)c(-c2cc(F)ccc2F)cc(Cl)c1=O [Compound 469]
Magnaporthe grisea; [1]
  Test A (control value class): H (H shows more than 50% of control values)
Phytophthora infestans; [2]
  Test F (control value class): L (L shows 50% or less of control values)

## COc1cc(OC)cc(C2=C(c3c(F)cccc3Cl)N(C)C(=O)CC2)c1 [Compound 163]
Magnaporthe grisea; Blast on rice
  Test A control value: H (H shows more than 50% of control values)
Phytophthora infestans; [6]
  Test F control value: L (L shows 50% or less of control values)

## CCn1c(-c2c(F)cc(F)cc2F)c(-c2cc(F)ccc2F)ccc1=O [Compound 424]
Magnaporthe grisea; [1]
  Test A (control value class): H (H shows more than 50% of control values)
Phytophthora infestans; [2]
  Test F (control value class): H (H shows more than 50% of control values)

## CCn1c(-c2c(F)cccc2F)c(-c2cc(OCC#N)ccc2Cl)ccc1=O [Compound 98]
Magnaporthe grisea; Blast on rice
  Test A control value: H (H shows more than 50% of control values)
Phytophthora infestans; [6]
  Test F control value: L (L shows 50% or less of control values)

## COc1cc(F)c(-c2c(-c3cccc(F)c3F)ccc(=O)n2C)c(F)c1 [Compound 561]
Magnaporthe grisea
  Test A (control value class, blast on rice): H (H shows more than 50% of control values)
Phytophthora infestans; [3]
  Test F (control value class, late blight on tomato): L (L shows 50% or less of control values)

## CCn1c(-c2c(F)cccc2F)c(-c2ccccc2C)cc(Br)c1=O [Compound 162]
Magnaporthe grisea; Blast on rice
  Test A control value: H (H shows more than 50% of control values)
Phytophthora infestans; [6]
  Test F control value: L (L shows 50% or less of control values)

## CCn1c(-c2c(F)cccc2F)c(-c2cccc(Cl)c2F)cc(C)c1=O [Compound 493]
Magnaporthe grisea; [1]
  Test A (control value class): H (H shows more than 50% of control values)
Phytophthora infestans; [2]
  Test F (control value class): L (L shows 50% or less of control values)

## C#CCN1C(=O)CCC(c2cc(OC)ccc2Cl)=C1c1c(F)cccc1F [Compound 456]
Magnaporthe grisea; [1]
  Test A (control value class): H (H shows more than 50% of control values)
Phytophthora infestans; [2]
  Test F (control value class): L (L shows 50% or less of control values)

## Cn1c(-c2c(F)cccc2F)c(-c2ccccc2F)cc(Br)c1=O [Compound 145]
Magnaporthe grisea; Blast on rice
  Test A control value: H (H shows more than 50% of control values)
Phytophthora infestans; [6]
  Test F control value: H (H shows more than 50% of control values)

## O=c1ccc(-c2ccc(Cl)cc2F)c(-c2c(F)cccc2F)n1CC(F)F [Compound 428]
Magnaporthe grisea; [1]
  Test A (control value class): H (H shows more than 50% of control values)
Phytophthora infestans; [2]
  Test F (control value class): L (L shows 50% or less of control values)

## Cn1c(-c2c(F)cccc2F)c(-c2cccc(Cl)c2F)ccc1=O [Compound 474]
Magnaporthe grisea; [1]
  Test A (control value class): H (H shows more than 50% of control values)
Phytophthora infestans; [2]
  Test F (control value class): L (L shows 50% or less of control values)

## CCn1c(-c2c(F)cc(F)cc2F)c(-c2cc(F)ccc2Cl)cc(C)c1=O [Compound 461, 5-(2-chloro-5-fluorophenyl)-1-ethyl-3-methyl-6-(2,4,6-trifluorophenyl)pyridine-2(1H)-one]
Magnaporthe grisea; [1]
  Test A (control value class): H (H shows more than 50% of control values)
Phytophthora infestans; [2]
  Test F (control value class): L (L shows 50% or less of control values)

## CCn1c(-c2c(F)cccc2F)c(-c2cc(F)cc(F)c2Cl)cc(Cl)c1=O [Compound 552]
Magnaporthe grisea; [1]
  Test A (control value class): H (H shows more than 50% of control values)
Phytophthora infestans; [2]
  Test F (control value class): L (L shows 50% or less of control values)

## CCn1c(-c2c(F)cccc2F)c(-c2cc(Cl)cc(Cl)c2Cl)ccc1=O [Compound 450]
Magnaporthe grisea; [1]
  Test A (control value class): H (H shows more than 50% of control values)
Phytophthora infestans; [2]
  Test F (control value class): L (L shows 50% or less of control values)

## Cn1c(-c2c(F)cccc2F)c(-c2cc(Cl)ccc2Cl)cc(Cl)c1=O [Compound 447]
Magnaporthe grisea; [1]
  Test A (control value class): H (H shows more than 50% of control values)
Phytophthora infestans; [2]
  Test F (control value class): L (L shows 50% or less of control values)

## CCn1c(-c2c(F)cccc2F)c(-c2cccc(OCC#N)c2)ccc1=O [Compound 102]
Magnaporthe grisea; Blast on rice
  Test A control value: H (H shows more than 50% of control values)
Phytophthora infestans; [6]
  Test F control value: L (L shows 50% or less of control values)

## CCn1c(-c2c(F)cccc2F)c(-c2cc(OCOC)ccc2Cl)cc(Br)c1=O [Compound 126]
Magnaporthe grisea; Blast on rice
  Test A control value: H (H shows more than 50% of control values)
Phytophthora infestans; [6]
  Test F control value: L (L shows 50% or less of control values)

## COc1ccc(Cl)c(-c2cc(Cl)c(=O)n(C3CC3)c2-c2c(F)cccc2F)c1 [Compound 498]
Magnaporthe grisea; [1]
  Test A (control value class): H (H shows more than 50% of control values)
Phytophthora infestans; [2]
  Test F (control value class): L (L shows 50% or less of control values)

## CCn1c(-c2c(F)cc(F)cc2F)c(-c2ccc(F)cc2Cl)cc(Br)c1=O [Compound 578]
Magnaporthe grisea
  Test A (control value class, blast on rice): H (H shows more than 50% of control values)
Phytophthora infestans; [3]
  Test F (control value class, late blight on tomato): L (L shows 50% or less of control values)

## Cn1c(-c2c(F)cccc2F)c(-c2cc(F)cc(F)c2Cl)cc(Cl)c1=O [Compound 554]
Magnaporthe grisea; [1]
  Test A (control value class): H (H shows more than 50% of control values)
Phytophthora infestans; [2]
  Test F (control value class): L (L shows 50% or less of control values)

## CCCCn1c(-c2c(F)cccc2F)c(-c2cc(OC)ccc2Cl)cc(Cl)c1=O [Compound 395]
Magnaporthe grisea; [1]
  Test A (control value class): H (H shows more than 50% of control values)
Phytophthora infestans; [2]
  Test F (control value class): L (L shows 50% or less of control values)

## CCn1c(-c2c(F)cccc2F)c(-c2cccc(Cl)c2)cc(Br)c1=O [Compound 179]
Magnaporthe grisea; Blast on rice
  Test A control value: H (H shows more than 50% of control values)
Phytophthora infestans; [6]
  Test F control value: L (L shows 50% or less of control values)

## CCn1c(-c2c(F)cccc2F)c(-c2cc(OC)ccc2Cl)ccc1=O [Compound 582]
Magnaporthe grisea
  Test A (control value class, blast on rice): H (H shows more than 50% of control values)
Phytophthora infestans; [3]
  Test F (control value class, late blight on tomato): L (L shows 50% or less of control values)

## O=c1c(Cl)cc(-c2cc(Cl)cc(Cl)c2Cl)c(-c2c(F)cccc2F)n1CC(F)F [Compound 455]
Magnaporthe grisea; [1]
  Test A (control value class): H (H shows more than 50% of control values)
Phytophthora infestans; [2]
  Test F (control value class): L (L shows 50% or less of control values)

## CCCCn1c(-c2c(F)cccc2F)c(-c2cc(OC)ccc2Cl)ccc1=O [Compound 394]
Magnaporthe grisea; [1]
  Test A (control value class): H (H shows more than 50% of control values)
Phytophthora infestans; [2]
  Test F (control value class): L (L shows 50% or less of control values)

## O=c1ccc(-c2cccc(Cl)c2F)c(-c2c(F)cccc2F)n1CC(F)F [Compound 494]
Magnaporthe grisea; [1]
  Test A (control value class): H (H shows more than 50% of control values)
Phytophthora infestans; [2]
  Test F (control value class): L (L shows 50% or less of control values)

## CCn1c(-c2c(F)cc(F)cc2F)c(-c2ccc(F)cc2Cl)cc(C)c1=O [Compound 594]
Magnaporthe grisea
  Test A (control value class, blast on rice): H (H shows more than 50% of control values)
Phytophthora infestans; [3]
  Test F (control value class, late blight on tomato): L (L shows 50% or less of control values)

## CCn1c(-c2c(F)cccc2F)c(-c2cc(Cl)ccc2Cl)cc(Cl)c1=O [Compound 445]
Magnaporthe grisea; [1]
  Test A (control value class): H (H shows more than 50% of control values)
Phytophthora infestans; [2]
  Test F (control value class): L (L shows 50% or less of control values)
